Measured values reported in the supplement of paper PMC4604168 (melanoma cell lines).
This is one part of the list. Single values are uncertain, as repeats are few or missing.

Test system: UACC62
Assay: cell count relative to DMSO control; melanoma cells; higher = more viable cells
Settings: library dose: standard library concentration; 72 h
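Also: cells treated in 1,536-well plates, then fixed and DAPI-stained, with nuclei counted from automated high-throughput microscope images.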

Question: `Cc1cc(N2CCOCC2)cc2[nH]c(-c3c(NC[C@@H](O)c4cccc(Cl)c4)cc[nH]c3=O)nc12` + Oc1nc(-c2ccc(C(F)(F)F)cc2)nc2c1CSCC2 [XAV939] (first compound 1 µM, partner dose 10 µM) was tested. Which cell count did it give?
Answer: 103%

Question: Which cell count does the source give for `O=C(Nc1cc(C(F)(F)F)cc(C(F)(F)F)c1)c1cc(Cl)ccc1O` + CC(=O)O[C@@]12CO[C@@H]1C[C@H](O)[C@@]1(C)C(=O)[C@H](O)C3=C(C)[C@@H](OC(=O)[C@H](O)[C@@H](NC(=O)OC(C)(C)C)c4ccccc4)C[C@@](O)([C@@H](OC(=O)c4ccccc4)[C@H]21)C3(C)C [Docetaxel] (first compound 0.08 µM, partner dose 0.0005 µM) here?
Answer: 71.5%

Question: Which cell count does the source give for `O=C(Nc1ccccc1)c1cc([N+](=O)[O-])ccc1Cl` + O=S(=O)(c1ccccc1)N(CC(F)(F)F)c1ccc(C(O)(C(F)(F)F)C(F)(F)F)cc1 [T0901317] (first compound 10 µM, partner dose 7 µM) here?
Answer: 70.6%

Question: `O=C(Nc1cc(C(F)(F)F)cc(C(F)(F)F)c1)c1cc(Cl)ccc1O` + CCc1ccc(CCOc2ccc(CC3SC(=O)NC3=O)cc2)nc1 [pioglitazone] (first compound 0.08 µM, partner dose 10 µM) was tested. Which cell count did it give?
Answer: 116%

Question: Which cell count does the source give for `Cn1nnc2c(C(N)=O)ncn2c1=O` [temozolomide] + Oc1nc(-c2ccc(C(F)(F)F)cc2)nc2c1CSCC2 [XAV939] (first compound 10 µM, partner dose 10 µM) here?
Answer: 78.9%

Question: Which cell count does the source give for `O=C(Nc1cc(C(F)(F)F)cc(C(F)(F)F)c1)c1cc(Cl)ccc1O` + C[C@]1(c2nc3c(C(N)=O)cccc3[nH]2)CCCN1 [Veliparib] (first compound 0.08 µM, partner dose 7 µM) here?
Answer: 62.9%

Question: `O=C(O)c1ccc2c(c1)nc(Nc1cccc(Cl)c1)c1ccncc12` + O=C(Nc1ccccc1)c1cc([N+](=O)[O-])ccc1Cl [GW9662] (first compound 2 µM, partner dose 10 µM) was tested. Which cell count did it give?
Answer: 70.1%

Question: Which cell count does the source give for `O=C(O)c1ccc2c(c1)nc(Nc1cccc(Cl)c1)c1ccncc12` + Cn1cc(/C=C2\C(=O)Nc3cccnc32)c2ccccc21 [GW441756] (first compound 2 µM, partner dose 2 µM) here?
Answer: 70.6%

Question: `O=C(O)[C@@H]1[O][Sb](=[O])([O][Sb]2(=[O])[O][C@H]([C@H](O)CO)[C@H](O)[C@H](C(=O)O)[O]2)[O][C@H]([C@H](O)CO)[C@@H]1O` (stereo partly specified) [stibogluconate] + COc1ccc2c(c1)CCC1C2CCC2(C)C(NCCCCCCN3C(=O)C=CC3=O)CCC12 [U73122] (first compound 10 µM, partner dose 2 µM) was tested. Which cell count did it give?
Answer: 102%

Test system: WM115
Assay: as above
Settings: library dose: standard library concentration; 72 h

Question: With `O=C(Nc1cc(C(F)(F)F)cc(C(F)(F)F)c1)c1cc(Cl)ccc1O` + Nc1ncn([C@H]2C[C@H](O)[C@@H](CO)O2)c(=O)n1 [decitabine] (first compound 0.08 µM, partner dose 0.5 µM) as the molecule, how does the cell count read?
Answer: 81.5%

Question: How did the cell count turn out when `O=C(O)[C@@H]1[O][Sb](=[O])([O][Sb]2(=[O])[O][C@H]([C@H](O)CO)[C@H](O)[C@H](C(=O)O)[O]2)[O][C@H]([C@H](O)CO)[C@@H]1O` (stereo partly specified) [stibogluconate] + N#Cc1c(O)c2c(-c3ccc(-c4ccccc4O)cc3)csc2[nH]c1=O [A769662] (first compound 10 µM, partner dose 10 µM) was run?
Answer: 82.6%

Question: How did the cell count turn out when `O=C(Nc1ccccc1)c1cc([N+](=O)[O-])ccc1Cl` + Cc1cc([N+](=O)[O-])ccc1NS(=O)(=O)c1cc(Cl)ccc1Cl [FH535] (first compound 10 µM, partner dose 5 µM) was run?
Answer: 77.5%

Question: Which cell count does the source give for `O=C(Nc1cc(C(F)(F)F)cc(C(F)(F)F)c1)c1cc(Cl)ccc1O` + Nc1ccn([C@@H]2O[C@H](CO)[C@@H](O)C2(F)F)c(=O)n1 [gemcitabine] (first compound 0.08 µM, partner dose 0.002 µM) here?
Answer: 71.5%

Question: How did the cell count turn out when `O=C(Nc1cc(C(F)(F)F)cc(C(F)(F)F)c1)c1cc(Cl)ccc1O` + C=CCn1c(=O)c2cnc(Nc3ccc(N4CCN(C)CC4)cc3)nc2n1-c1cccc(C(C)(C)O)n1 [MK1775] (first compound 0.08 µM, partner dose 0.1 µM) was run?
Answer: 107%

Question: Which cell count does the source give for `O=C(Nc1cc(C(F)(F)F)cc(C(F)(F)F)c1)c1cc(Cl)ccc1O` + CCCCCCCCCCCC1=C(O)C(=O)C=C(O)C1=O [Embelin] (first compound 0.08 µM, partner dose 6 µM) here?
Answer: 93.2%

Question: `Cn1nnc2c(C(N)=O)ncn2c1=O` [temozolomide] + CCN(CC)CCCCNc1ncc2cc(-c3cc(OC)cc(OC)c3)c(NC(=O)NC(C)(C)C)nc2n1 [PD173074] (first compound 10 µM, partner dose 0.5 µM) was tested. Which cell count did it give?
Answer: 96.1%

Question: How did the cell count turn out when `O=C(O)[C@@H]1[O][Sb](=[O])([O][Sb]2(=[O])[O][C@H]([C@H](O)CO)[C@H](O)[C@H](C(=O)O)[O]2)[O][C@H]([C@H](O)CO)[C@@H]1O` (stereo partly specified) [stibogluconate] + Nc1ncn([C@H]2C[C@H](O)[C@@H](CO)O2)c(=O)n1 [decitabine] (first compound 10 µM, partner dose 0.5 µM) was run?
Answer: 64.8%

Question: Which cell count does the source give for `O=C(O)c1ccc2c(c1)nc(Nc1cccc(Cl)c1)c1ccncc12` + C=CCn1c(=O)c2cnc(Nc3ccc(N4CCN(C)CC4)cc3)nc2n1-c1cccc(C(C)(C)O)n1 [MK1775] (first compound 2 µM, partner dose 0.1 µM) here?
Answer: 67.8%

Question: For `O=C(O)c1ccc2c(c1)nc(Nc1cccc(Cl)c1)c1ccncc12` + COc1cc(N2CCC(N3CCN(C)CC3)CC2)ccc1Nc1ncc(Cl)c(Nc2ccccc2S(=O)(=O)C(C)C)n1 [NVP-TAE684] (first compound 2 µM, partner dose 0.4 µM), which cell count is on record?
Answer: 70.3%

Question: For `O=C(O)c1ccc2c(c1)nc(Nc1cccc(Cl)c1)c1ccncc12` + Cc1cc([N+](=O)[O-])ccc1NS(=O)(=O)c1cc(Cl)ccc1Cl [FH535] (first compound 2 µM, partner dose 5 µM), which cell count is on record?
Answer: 87.7%

Question: Which cell count does the source give for `O=C(Nc1cc(C(F)(F)F)cc(C(F)(F)F)c1)c1cc(Cl)ccc1O` + Cn1c(Nc2ccc(C(F)(F)F)cc2)nc2cc(Oc3ccnc(-c4ncc(C(F)(F)F)[nH]4)c3)ccc21 [CHIR265] (first compound 0.08 µM, partner dose 0.4 µM) here?
Answer: 42.3%

Question: With `O=C(O)[C@@H]1[O][Sb](=[O])([O][Sb]2(=[O])[O][C@H]([C@H](O)CO)[C@H](O)[C@H](C(=O)O)[O]2)[O][C@H]([C@H](O)CO)[C@@H]1O` (stereo partly specified) [stibogluconate] + COc1cc2ncnc(Nc3ccc(Oc4ccccc4)cc3)c2cc1OC [SrcI1] (first compound 10 µM, partner dose 10 µM) as the molecule, how does the cell count read?
Answer: 72.1%

Question: Which cell count does the source give for `O=C(O)c1ccc2c(c1)nc(Nc1cccc(Cl)c1)c1ccncc12` + C#Cc1cccc(Nc2ncnc3cc(OCCOC)c(OCCOC)cc23)c1 [erlotinib] (first compound 2 µM, partner dose 4 µM) here?
Answer: 64.3%

Question: How did the cell count turn out when `Cc1cc(N2CCOCC2)cc2[nH]c(-c3c(NC[C@@H](O)c4cccc(Cl)c4)cc[nH]c3=O)nc12` + Oc1cc(-c2nc(-c3ccccc3)[nH]c2-c2ccncc2)ccc1Cl [L779450] (first compound 1 µM, partner dose 1 µM) was run?
Answer: 46.7%

Question: Which cell count does the source give for `O=C(O)[C@@H]1[O][Sb](=[O])([O][Sb]2(=[O])[O][C@H]([C@H](O)CO)[C@H](O)[C@H](C(=O)O)[O]2)[O][C@H]([C@H](O)CO)[C@@H]1O` (stereo partly specified) [stibogluconate] + O=S(=O)(c1ccccc1)N(CC(F)(F)F)c1ccc(C(O)(C(F)(F)F)C(F)(F)F)cc1 [T0901317] (first compound 10 µM, partner dose 7 µM) here?
Answer: 87.3%

Question: With `O=C(O)[C@@H]1[O][Sb](=[O])([O][Sb]2(=[O])[O][C@H]([C@H](O)CO)[C@H](O)[C@H](C(=O)O)[O]2)[O][C@H]([C@H](O)CO)[C@@H]1O` (stereo partly specified) [stibogluconate] + Cn1cncc1[C@@](N)(c1ccc(Cl)cc1)c1ccc2c(c1)c(-c1cccc(Cl)c1)cc(=O)n2C [tipifarnib] (first compound 10 µM, partner dose 0.05 µM) as the molecule, how does the cell count read?
Answer: 80.5%

Question: Which cell count does the source give for `O=C(Nc1cc(C(F)(F)F)cc(C(F)(F)F)c1)c1cc(Cl)ccc1O` + COc1ccc(COc2ccc(Cc3cnc(N)nc3N)cc2OC)cc1 [GW2580] (first compound 0.08 µM, partner dose 5 µM) here?
Answer: 88.3%

Question: With `O=C(Nc1cc(C(F)(F)F)cc(C(F)(F)F)c1)c1cc(Cl)ccc1O` + Cc1cc([N+](=O)[O-])ccc1NS(=O)(=O)c1cc(Cl)ccc1Cl [FH535] (first compound 0.08 µM, partner dose 5 µM) as the molecule, how does the cell count read?
Answer: 83.9%

Question: How did the cell count turn out when `O=C(Nc1cc(C(F)(F)F)cc(C(F)(F)F)c1)c1cc(Cl)ccc1O` + Cn1cc(/C=C2\C(=O)Nc3cccnc32)c2ccccc21 [GW441756] (first compound 0.08 µM, partner dose 2 µM) was run?
Answer: 104%

Question: How did the cell count turn out when `O=C(O)c1ccc2c(c1)nc(Nc1cccc(Cl)c1)c1ccncc12` + CCc1ccc(CCOc2ccc(CC3SC(=O)NC3=O)cc2)nc1 [pioglitazone] (first compound 2 µM, partner dose 10 µM) was run?
Answer: 79.1%

Question: With `Cc1cc(N2CCOCC2)cc2[nH]c(-c3c(NC[C@@H](O)c4cccc(Cl)c4)cc[nH]c3=O)nc12` + CC(C)CCN1c2nc(Nc3cc(F)c(O)c(F)c3)ncc2N(C)C(=O)C1C [BID1870] (first compound 1 µM, partner dose 1 µM) as the molecule, how does the cell count read?
Answer: 105%
